Data: the supplement of paper PMC10126150
Values marked as one replicate rest on one cluster of the flow cell; about a third of the high ones do not repeat.

Tested on: ATP
Experiment: switch fluorescence ratio, 500 uM ATP over buffer (Cy3 cluster intensity, sum of 5 cycles each) (fold (ratio)); higher = stronger signal-on switching upon ATP binding; sequences stand for … in TCGTCGGCAGCGTCAGATGTGTATAAGAGACAGTTTTTTTTTTTTTTTTTTTTTTTTT…TC
Details: aptamer strand: ATP DNA aptamer (quencher-CACCTGGGGGAGTATTGCGGAGGAAGG + anchor), 100 nM annealed; ATP concentration: 500 uM; one replicate
Method in brief: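 Five buffer/ATP imaging cycles were run on Cy3-labelled switching-strand clusters on a modified Illumina MiSeq flow-cell, with NaOH stripping and re-annealing between cycles. In each cycle, clusters annealed to 100 nM quencher-labelled ATP aptamer were imaged in selection buffer, then after 15 min with 500 uM ATP at 22 °C. Per cluster, the fluorescence ratio is summed target-cycle over summed buffer-cycle Cy3 intensity, averaged per switch-domain sequence. Only clusters within 100-1000 RFU were kept.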
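Also: ATP exposure 15 min at 22 °C before imaging.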

| Sequence | switch fluorescence ratio |
| --- | --- |
| CCTTTCCTCA | 1.61 |
| CTGGCATGCT | 0.988 |
| TTTCGCTTCC | 2.26 |
| CCCCGGCGT | 1 |
| TAGACATG | 0.992 |
| ACATATCCCT | 1.06 |
| TGGTCGAACT | 0.996 |
| ATCGCTTGTG | 0.974 |
| GAATCTTTTT | 1 |
| GGTCCCTTGC | 1.33 |
| AATTAGCATG | 1.01 |
| TAACTTCTTC | 1.01 |
| GACAGCACTG | 0.936 |
| TAATTATCGT | 1.01 |
| TAAACCGTGT | 0.991 |
| GGCGAAAATG | 0.996 |
| CCCAATTGGC | 1.06 |
| GCGATTTCCG | 1.04 |
| TATCAAGGGC | 0.947 |
| TGGAGGAAGG | 1 |
| ATGGTATCC | 1.01 |
| GAGGGTGGCA | 1.07 |
| AGCGCTTTAC | 2.63 |
| CGTTGTATTC | 0.912 |
| GGAGGGTACT | 1.02 |
| TGCCTGAAAG | 1.02 |

| Sequence | switch fluorescence ratio |
| --- | --- |
| CCAAAAAGCT | 1.01 |
| ATCTTTTTAA | 1 |
| CGATTTTAGC | 0.99 |
| TCTAGTCTC | 1.02 |
| CTGGTTGAGC | 0.994 |
| AGCAAGAAAT | 0.988 |
| GATCCTAGGG | 0.967 |
| AAACGCGTT | 0.979 |
| TGATTATTAA | 1.07 |
| CCCCTGTTAA | 1.05 |
| ACGTTACCGG | 1.55 |
| TGAACTAGCG | 1.04 |
| GGCTACCCCT | 1.08 |
| TTTAGGTCCA | 0.991 |
| CGGGGCTTTT | 0.94 |
| CCGTTGAGGC | 1.29 |
| ACGGCCTTTG | 1.08 |
| TCACTGATGC | 0.987 |
| GCAGGGAATC | 0.994 |
| AACCTAGAAA | 3.67 |
| CGTATAGCAA | 3.42 |
| CCTGGACGGG | 1.02 |
| TCGGTATGCC | 0.958 |
| CGTAGTTGGT | 1.01 |
| ACCCGGAC | 1.05 |
| TGGATCCGGA | 1.09 |

| Sequence | switch fluorescence ratio |
| --- | --- |
| ATACTCATGA | 1.05 |
| CGCTGCGTTG | 1 |
| TTACAATAG | 1.06 |
| GGCATCGCTG | 0.927 |
| GTGCGGGAG | 1.02 |
| TTATCAGAAT | 1.04 |
| TGATAATTT | 0.979 |
| AGTCGCAGCA | 1.06 |
| TGGGGCAGCC | 0.995 |
| GCATCCGTCA | 1.07 |
| TGATCCCTCT | 1.01 |
| AATTGGACCG | 1.05 |
| GCTGCAAGC | 1.07 |
| TCCGACATGT | 1.24 |
| TTTGCACT | 1.02 |
| GGGCGGGAGA | 0.969 |
| AACATCGGA | 0.972 |
| AGTTCTGGCA | 0.954 |
| CTCGTTAAAC | 1.19 |
| AAAAGCTCCA | 1 |
| GTTAACCTGT | 1.03 |
| CTTAGAATAA | 0.995 |
| TTTTTCGCG | 1.01 |
| TATAATTCGT | 1 |
| AAACCGTTCG | 1.24 |
| GATCTTAGGA | 0.944 |

| Sequence | switch fluorescence ratio |
| --- | --- |
| CGTGGTTCTG | 1 |
| TGTGGACGCC | 0.984 |
| ATACTGGGAG | 0.947 |
| CGGCAGATCA | 0.978 |
| GACGGGGCGA | 1.08 |
| TGAGACTGTG | 1.06 |
| TATCGTAAGA | 1.03 |
| ATCGCTTAGT | 1.01 |
| TACCTATGCT | 1.06 |
| CTCAGAATCT | 1.02 |
| CGACTAAGGG | 0.952 |
| GTTTCATCGT | 1 |
| GAGAATGATA | 1.01 |
| CTGTCGAAAC | 1.07 |
| TTCCTGTTGA | 1.03 |
| AATTATCTTC | 1.11 |
| TCGTCTGGGT | 1.02 |
| AAGTTATCA | 0.992 |
| TCCACCCGAT | 1.16 |
| GACTATCCC | 0.997 |
| GCTTCGGGCA | 0.954 |
| GGCGCTTTGG | 1.06 |
| AGTCCTACGA | 1.04 |
| AGTTGTAGGC | 0.999 |
| ATAGGGTCAT | 1.02 |
| AGGCCACTCC | 1.11 |

| Sequence | switch fluorescence ratio |
| --- | --- |
| GATGTTTTTA | 1.03 |
| CTGAGCATGA | 1.04 |
| ACCAAACGTA | 1.11 |
| CGTGATGTTG | 1 |
| AGGTCGAGAC | 0.974 |
| AATGGCCCGC | 1 |
| GGCATATCCT | 1.02 |
| GGGAGCCGTT | 1.05 |
| AATCCGGTAC | 4.64 |
| GGCCTGTGAC | 0.973 |
| GTTGTACGAC | 1.04 |
| GGCTATGGAG | 0.998 |
| CGAACATGGG | 1.01 |
| GATTCGGGAC | 0.993 |
| AGCTGACGGC | 1.02 |
| CAGGTCTTTA | 1.01 |
| CACAGACGCT | 1.22 |
| GACGTTAGG | 0.97 |
| CCTATTCACT | 1.07 |
| TACTAAAGGG | 1 |
| AACTTAGTTT | 1.07 |
| TTTCATTGTG | 0.994 |
| CGTCGGCGAC | 0.996 |
| AATACATATA | 1.07 |
| CGGACCAGGA | 1.06 |
| AACTTGGCAC | 1.03 |

| Sequence | switch fluorescence ratio |
| --- | --- |
| GCGGGGCTTC | 0.977 |
| TGATGGAAGC | 1.05 |
| TTTAATCGGA | 0.964 |
| ACAACTCTCA | 1.01 |
| GGTGAGTATG | 0.987 |
| GTCGTTAGCA | 0.934 |
| ACTATCCTTT | 0.97 |
| CGTTAAAAAT | 0.996 |
| GAGGTCATCG | 1.01 |
| CCTACTCTCG | 1.09 |
| CGTGGCTCTG | 0.999 |
| TGACTCACCG | 1.03 |
| GAGTATGGAG | 1.02 |
| TTACTCCACG | 1.47 |
| CTTCGCTGGA | 1.09 |
| GGTCGGCAAA | 1.17 |
| CAATGACTG | 0.847 |
| TGAGACATGA | 0.973 |
| TCTGAGGGAC | 1 |
| TGGAATAAAC | 1.02 |
| AAGACCGCAA | 2.48 |
| GCACCGCGTT | 1.08 |
| ACCCAACAGC | 1.16 |
| ACTCTGTGCG | 0.991 |
| GACGGTACGA | 1.12 |
| GACTAGCAGC | 1.11 |

| Sequence | switch fluorescence ratio |
| --- | --- |
| CAGAGCCCTG | 1.03 |
| GGCGCATTGT | 1.05 |
| GCGATATCT | 1.12 |
| GTGTTCTTTT | 0.976 |
| GAATAACCTA | 1.02 |
| ACCGTCCCGG | 1.12 |
| TCGCTCGCAG | 2.04 |
| GTGTGAATCG | 0.978 |
| TTTGAGGCGA | 1.1 |
| GTTATGTATC | 1 |
| TGTCACCTAA | 1.08 |
| GTTCAGCAG | 1.02 |
| TTCAAGCAAA | 0.977 |
| CGCATATGCC | 1.16 |
| ACTGTCAGCT | 1.02 |
| TTTTATCTAT | 1.01 |
| TATAAGAGC | 0.982 |
| ACGTCGCTTG | 1.04 |
| CGGGCCTGTT | 0.982 |
| ATTCAACATT | 1.05 |
| TAGTACTTCG | 1.03 |
| ATACGTATCG | 1.07 |
| ATGCGAAGCC | 1.03 |
| GTACGCATGG | 1.6 |
| TAAAACGTCG | 1.01 |
| AATTTGCTGA | 0.995 |

| Sequence | switch fluorescence ratio |
| --- | --- |
| ACGGCCACCC | 1.66 |
| ATCGGACTCG | 1.02 |
| GACCTGGAAA | 1.05 |
| CTGGACGAGA | 0.969 |
| CCTAACGAAT | 1.11 |
| TTTGTCACCC | 1.07 |
| GGGCCCGCAT | 1.11 |
| TAGCTGGCAT | 1 |
| ATGTACTCGA | 1.05 |
| TCGCCATAAT | 1.05 |
| TGTATCGACG | 1.02 |
| TTGACTTTCG | 1.03 |
| CAGTAGTTTC | 1.03 |
| TACTTGAATC | 1.04 |
| GTGGATGGAG | 0.991 |
| TCATGAGCTA | 1 |
| CGATACAGTT | 1.04 |
| ATGTCACGCC | 1.1 |
| CATGGCTTA | 0.997 |
